According to patent US12551573B2, “Compositions and methods for the targeting of PCSK9” (Scribe Therapeutics Inc., priority 2022, dated 2026):
Where two headings read alike, the source gives them in different places.

B1: DOMAIN_19221 (protein, listed as Camelus dromedarius)
chain: PQGLVTFGDVAVDFSQEEWEWLDCAQRTLYRSVMLENYRSLVSLGLCVSKPEMISSLEQRKEPWTVKRKCTRGQCPDSEAV
B2: DOMAIN_19351 (protein, listed as Pongo sp.)
chain: YEEMVTFEDVAVHFTKTEWTGLSPAQRALYRSVMLENFGNLTALGYPVPKPALISLLEGGDMAWGLEAQDDPLAEMTKNVC
B3: DOMAIN_19385 (protein, listed as Monodelphis domestica)
chain: AQEMVTFQDVAVDFTREEWCLLSPPQKELYKEVMLENARNLLSVGLPALPEDVISYLEQREAPWMLEREGPRSCCPGEILL
B4: DOMAIN_19404 (protein, listed as Monodelphis domestica)
chain: IQGSLTFKDVAMNFTQEEWCLLDHSQKELYLEVMLENVQNLLSVGLPVPREYYTSYFQQEKAPWLLVQKGPRNSSPEAETN
B5: DOMAIN_19423 (protein, listed as Monodelphis domestica)
chain: PPRQERVTFGDVAVDFTLDEWVCLDSAQKALYRDVMLENYGHLVCLGLAGAKPAVIQRLERGEAAWCPGVPGSRLPGLFFF
B6: DOMAIN_19437 (protein, listed as Aotus trivirgatus)
chain: METLTFRDVAIEFSLEEWQCLDIAQQDLYRKVMLENYRNLAFLGIALTKPDLITCLEQRKVPWNMKRHEMADEPPVLCSNF
B7: DOMAIN_19445 (protein, listed as Monodelphis domestica)
chain: PQASVTFKDVAVDFTWEEWRLLDPSQKELFWEVMLENYRNLVCLGLADSNKDVRISELESGEPHWIPTGGVLRSCWPGWES
B8: DOMAIN_145 (protein, listed as Pan paniscus)
chain: MVTFEDVAVHFTKTEWTGLSPAQRALYRSVMLENFGNLTALGYPVPKPALISLLEGGDMAWGLEAQDDPPAERTKNVCKVI
B9: DOMAIN_19447 (protein, listed as Monodelphis domestica)
chain: PAQVLVTFKDVAVDFTQEEWRLLDPHQKELYKEVTLENAWNMLSMGLPVPRDLVSHFKQVEAPWMLEEEGSSNSCLDGERR
B10: DOMAIN_19487 (protein, listed as Monodelphis domestica)
chain: PQELVTFRDVAVDFTPEEWGQLGPAQKELYQEVMLENYRNLVCLGLTVSKPDVISQLEQGEAPWRLEGGSARGRCLDWGMR
B11: DOMAIN_19497 (protein, listed as Monodelphis domestica)
chain: CQETLTFKDVAVDFTREEWGQLGPAQRDLYKEVMLDNYRNLISLGLQGSKPDVIFWLERGQSPWTLKRRKSRDCCPEFHLH
B12: DOMAIN_19517 (protein, listed as Monodelphis domestica)
chain: PQELVTFEDVAVYLTKEEWEHLGPAQRRLYRDVMLENYENVVSLGFPVSKPDLISQLEQGEVPCLPDLPRTEVPEIHGGPL
B13: DOMAIN_19533 (protein, listed as Papio anubis)
chain: FQGSVTFRDVAIDFSQEEWKWLQPAQRDLYRCVMLENYGHLVSLGLSISKPDVVSLLEQGKEPWLGKRNVNRDLQALCIPI
B14: DOMAIN_19580 (protein, listed as Monodelphis domestica)
chain: MELVTFEDVAVYFTRKEWGWLDPAQRDLYRDVMLENYGNFVSMGLPFSKPDVISQLEQGEESWVEDLQECEEGEFSPVVHS
B15: DOMAIN_19585 (protein, listed as Monodelphis domestica)
chain: AWEVVTFQDVAVDFTREEWRLLSPPQKELYKEVMLENVRNLLSVGLPAPPDDVVSYLEQREGPSMLDQEDLRTCGPEGEIR
B16: DOMAIN_19596 (protein, listed as Monodelphis domestica)
chain: QLGSVAFEDVAVDFTQEEWGYLAPAQRDLHREVMLENYRNLVFLGLVASKPDVICHLEQRKEPWSLRGIEKRKALRGTCPD
B17: DOMAIN_19597 (protein, listed as Monodelphis domestica)
chain: AQVLVTFQDVAVDFTQEEWRLLDPGQKELYKEVMLENVQNVLSLGLPVPREDWFFHFHEGGDPWMLEGKGPSISRLDEERH
B18: DOMAIN_214 (protein, listed as Pan paniscus)
chain: CSHRSCREDPGTSESREMDPVAFDDVAVNFTQEEWALLDISQRKLYREVMLETFRNLTSIGKKWKDQNIEYEYQNPRRNFR
B19: DOMAIN_19600 (protein, listed as Monodelphis domestica)
chain: SQVSLTFRDVAVDFSQEEWGLLEPAQKDMYRDVMLENYENFLSLGLPISKPNMISQLKRREAPSWIAEGKVSLSTYLGTLR
B20: DOMAIN_19611 (protein)
chain: SLGSDLFRDVAVVFSQEEWEQLAPAQRDLYRDVMLEIYSNLVSLGFAISKPDVISFLEQGREPWMVEKVVTGGQCPVLESR
modifications: Lipotes vexillifer
B21: DOMAIN_19629 (protein, listed as Monodelphis domestica)
chain: SEETVTFKDVAVDFTWEEWKQLTPVQRDLYRDVMLENYQNLVSLGLPVFQSDLISQLERGEVPWIPEGETFRGPCPGSINQ
B22: DOMAIN_19708 (protein)
chain: TQVSVTFDDVAVTFTQEEWGHLDPAQRTLYREVMLETCRLLVSLGCPVPRPELIYRLEHGQELWTVKRDLSRSTCAVDEGK
modifications: source 1..81: note = Bos indicus x Bos taurus
B23: DOMAIN_19713 (protein)
chain: EPGAVSFADVAVYFSPEEWECLRPAQRALYRDVMRETYGHLGALGFPGPKPALISWMEQESEAWSPAAQDPEKGERLGGAR
modifications: Pan troglodytes
B24: DOMAIN_19721 (protein, listed as Otolemur garnettii)
chain: FQGPVTFRDVAIDFSQEEWKWLQPAQRDLYRCVMLENYGHLVSLGLSISKPDVVSLLEQGKEPWLEQGDVRRNLFSVSQSN
B25: DOMAIN_19776 (protein, listed as Enhydra lutris)
chain: LQEPVTFADVAVLFTPEEWMFLDSAQRSLYRDVMLENYRNLASVGDQLGKPSMLSLSEPGEELWAPERRTFPGTRPEPQHQ
B26: DOMAIN_19777 (protein, listed as Pongo sp.)
chain: RRESVTFEDVAVYFSENEWIGLGPAQRALYRDVMLENYGAVASLAFPFPKPALISQLERGETPWCSVPQGALDGEAPRGIS
B27: DOMAIN_225 (protein, listed as Pan paniscus)
chain: MDSVAFEDVAVNFTQEEWSLLDPSQKNLYREVMQETLRNLASIGEKWKDQYIEDQYKNPRNNLRSLLGERVDENTEENHCG
B28: DOMAIN_19780 (protein, listed as Pongo sp.)
chain: MVTFEDVAVHFTKTEWTGLSPAQRALYRSVMLENFGNLTALGYPVPKPALISLLEGGDMAWGLEAQDDPLAETTKNVCKDV
B29: DOMAIN_19786 (protein)
chain: FEELVTFEDVLVDFSPEELSSLSAAQRNLYREVMLENYRNLVSLGHQFSKPDVISRLEEEESHAMETDSRHTVICPGESHD
modifications: Pan troglodytes
B30: DOMAIN_19788 (protein, listed as Enhydra lutris)
chain: RPRAVKFADVAVYFSPEEWGCLRPAQRALYRDVMRETYGHLSALGCSGPKPALISWLERNTDDWEPAALDPQECPRGLTVQ
B31: DOMAIN_19800 (protein, listed as Zalophus californianus)
chain: SLESDLFRDVAIVFSQEEWEQLAPAQRDLYRDVMLETYSNLVSLGLAIAKPDVISFLEQGKEPWVVEKMSRGGLCPVLESR
B32: DOMAIN_19805 (protein, listed as Rhinolophus ferrumequinum)
chain: SQGLVTFRDVALDFSQEEWEWLDPSQKDLYRDVMLENYRNLVCLGLSISKPNMISLLEQGKEPWMVQREMSDDPYTDWESW
B33: DOMAIN_19883 (protein, listed as Zalophus californianus)
chain: PQESVTFKDIAVDFTQEEWALLDTSQRKLYRDVMLENISHLVSVGYHLCKSDVVSQLEQGVELWREGRGFPQGPNPDRKSG
B34: DOMAIN_19886 (protein, listed as Panthera pardus)
chain: AQGSVVFSDVSVDFSQEEWECLDSGQRDLYRDVMLENYSNLLSMGFYIPKPPVISLLEQGKEPWMVGRELTKGLCSDLESM
B35: DOMAIN_19889 (protein)
chain: SKAPVTFGDLAIYFSQEEWEWLSPIQKDLYEDVMLENYQNLVSLGLSFRRPNVIALLEKGKAPWMVEPVKRRRGLDSGSKC
modifications: Vicugna pacos
B36: DOMAIN_19891 (protein, listed as Zalophus californianus)
chain: ARASLSFEDVAVGFSWEEWQLLAPSQKDLYRDVMLENYRNLVSVGYQASKPDSVFQLEQGEPPWMVEGAAQSQTCQGYPAT
B37: DOMAIN_226 (protein, listed as Pan paniscus)
chain: MDSVAFEDVAVSFTQEEWALLDPSQKNLYRDVMQETFKNLTSVGKTWKVQNIEDEYKNPRRNLRRSFTLVAQAGVRQDLGS

System: HBEGF locus
Assay type: cell-based, human
Details: high-throughput screen of dXR repression of the HBEGF gene
[1] = abundance of each domain in the library before and after diphtheria toxin selection, HEK293T cells
[2] = change in abundance of each domain in the library before and after diphtheria toxin selection
[3] = abundance of each domain in the library before vs after diphtheria toxin selection, listed domains met p-value <0.01 and log2(fold change) >2

Molecule	Log2 (fold change) [3]	also measured
B1	–	Log2 (fold change) [1]: 3.1733
B2	–	Log2 (fold change) [1]: 3.1988
B3	–	Log2 (fold change) [1]: 2.9198
B4	–	Log2 (fold change) [1]: 2.0125
B5	–	Log2 (fold change) [1]: 3.49
B6	–	Log2 (fold change) [1]: 2.826
B7	–	Log2 (fold change) [1]: 2.1105
B8	–	Log2 (fold change) [2]: 3.1497
B9	–	Log2 (fold change) [1]: 3.4492
B10	–	Log2 (fold change) [1]: 3.4312
B11	–	Log2 (fold change) [1]: 3.466
B12	3.3361	–
B13	2.5831	–
B14	3.5716	–
B15	3.0031	–
B16	3.8583	–
B17	3.5081	–
B18	–	Log2 (fold change) [2]: 2.1073
B19	2.5854	–

Molecule	Log2 (fold change) [3]	also measured
B20	3.3901	–
B21	3.0535	–
B22	3.6339	–
B23	3.845	–
B24	2.6913	–
B25	2.617	–
B26	3.2427	–
B27	–	Log2 (fold change) [2]: 2.259
B28	3.0867	–
B29	2.9155	–
B30	3.3393	–
B31	2.368	–
B32	2.6527	–
B33	3.5504	–
B34	2.8642	–
B35	3.1963	–
B36	3.2135	–
B37	–	Log2 (fold change) [2]: 3.0188
